Results as given in PubChem BioAssay AID493208 (National Center for Advancing Translational Sciences (NCATS), 2011).
Screen size: about 44,000 compounds; about 340 (0.77%) were called active. Roughly 5% stayed inconclusive and do not appear here. The call rests on the fitted dose curve; in most records, active means well fitted inhibition curve with a large enough effect; inconclusive means small, poorly fitted or top-dose-only effect; inactive means flat fitted curve, though single readings scatter. The list shows a part of the results.

Test: Acumen qHTS Assay for Inhibitors of the mTORC1 Signaling Pathway in MEF (Tsc2-/-, p53-/-) Cells: Sytravon;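 further: plate controls were DMSO for no effect and rapamycin for full effect; nearly all actives have a fitted effect of over 50% in size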
Details: phospho-rpS6 immunofluorescence/PI, 24 h; series mostly up to 38.3 µM; activity change, negative = inhibition: at the top concentration
In short: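 Immunofluorescence of rpS6 phosphorylation in Tsc2-/-, p53-/- MEFs after 24 h compound exposure, normalized to propidium iodide signal. Activity is expressed as % positive cells, thresholded with 7.5 nM rapamycin.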

Activity change, negative = inhibition, inactive:
Cc1ccccc1NC(=O)CSc1cn(CC(=O)N2CCCC2)c2ccccc12 4.44%, Cc1c(C(=O)Nc2ccc(-c3nc4cc(Cl)ccc4o3)cc2)oc2ccccc12 -2.7%, COc1ccc(N(C)C(=O)c2nc(-c3cccc(F)c3)n3c2CCCCC3)c(OC)c1 -5.99%, CCOc1ccc(NC(=O)CN2CCN(C3CCCCC3)C(=O)C2=O)cc1 14.7%, Cc1ccc(S(=O)(=O)N2CCc3cc(C(=O)NCCc4ccccc4)ccc32)cc1 0.258%, Cc1ccc(-c2cc(-c3coc4ccccc4c3=O)c3c(n2)-c2ccccc2OC3)cc1 4.69%, Cc1c(-c2cccc(NC(=O)Nc3ccccc3)c2)nc2ncccn12 0.632%, Cc1cc(-c2ccc(S(=O)(=O)NCc3ccccc3Cl)s2)on1 -4.12%, CCS(=O)(=O)N1CCC2(CC1)OC(=O)C(C)=C2C(=O)NCc1ccccc1C -0.393%, COc1cccc(Cn2c(=O)cc(C)c3c(C)nn(-c4ccc(C)cc4)c32)c1 -9.6%, Cc1ccc(S(=O)(=O)n2nc(-c3ccccc3)nc2NCc2ccccc2Cl)cc1 2.79%, Cc1cccc(N2C(=O)C(CC(=O)Nc3ccc(F)cc3)N(C3CCCC3)C2=O)c1 (stereo not given) -0.452%, Cc1ccc(-c2cc(C(=O)N3CCN(S(=O)(=O)c4ccc(Br)s4)CC3)[nH]n2)cc1C -0.265%, Cc1oc2ccc(O)c(CN3CCN(C)CC3)c2c1C(=O)Nc1ccc(C(C)C)cc1 -8.98%, COc1ccc(CNc2nc(-c3ccco3)nn2S(=O)(=O)c2ccc3ccccc3c2)cc1OC 0.579%, Cc1cc(C)n2nc(NCc3ccccc3Cl)nc2n1 -1.62%, Cc1ccc(C)c(NC(=O)Cn2c(=O)n(Cc3nc(C)no3)c(=O)c3cc4c(cc32)OCO4)c1 0%, CCc1ccc(NC(=O)Cn2c(=O)n(Cc3ccc4c(c3)OCO4)c(=O)c3oc4ccccc4c32)cc1 -3.2%, Cc1ccc(-c2noc(CN(C3CCCCC3)S(=O)(=O)c3ccc(F)cc3)n2)cc1 5.82%, CC(=O)Nc1ccc(NC(=O)CSc2cn(CC(=O)N(C(C)C)C(C)C)c3ccccc23)cc1 2%, Cc1cc2oc(C(=O)NCCc3ccc(S(N)(=O)=O)cc3)cc(=O)c2cc1C -9.43%, CCC(=O)N1CCc2cc(S(=O)(=O)NC(Cc3ccccc3)C(=O)NCc3ccc(C)cc3)ccc21 (stereo not given) -2.62%, CCOc1ccccc1CN1C(=O)c2ccccc2C1C(=O)NC1CCCCCC1 (stereo not given) -3.2%, COc1cc(C(=O)NCc2nnnn2-c2ccc(C)c(C)c2)cc(OC)c1OC 6.27%, COC(=O)c1cc2occc2n1Cc1nc(-c2ccccc2C)oc1C -6.88%, COc1ccc(-c2nc(C)c(CCNC(=O)c3ccco3)s2)cc1 -19.4%, CCC(C)Sc1nc2c([nH]c3ccccc32)c(=O)n1C (stereo not given) -6.35%, CCN1CCN(C(=O)c2ccc3c(c2)N(Cc2c(F)cccc2Cl)C(=O)c2ccccc2S3)CC1 -12.1%, Cc1ccccc1COC(=O)c1ccc(-c2nnn(Cc3ccccc3F)n2)cc1 2.63%, CC(=O)N1c2ccc(S(=O)(=O)N3CCN(c4cc(Cl)ccc4C)CC3)cc2CC1C (stereo not given) -3.12%, O=C(CCCCCn1c(=O)[nH]c2ccccc2c1=O)N1CCN(c2ccc(Cl)cc2)CC1 -4.68%, COC(=O)c1ccc(CNC(=O)c2nc(Cn3nc(C)c(Br)c3C)no2)cc1 2.7%, O=C(CSc1nc2c([nH]c3ccccc32)c(=O)n1-c1cccc(Cl)c1)NCc1ccccc1 -19.9%, COc1cc2c(cc1OC)C(COc1cc(C)cc(C)c1)N(C(=O)c1ccc(S(=O)(=O)N3CCCC3)cc1)CC2 (stereo not given) 4.77%, CCc1nnc(NC(=O)CSc2nc3c([nH]c4ccccc43)c(=O)n2-c2ccc(C)cc2)s1 -6.84%, CCc1nc2ccc(C(=O)N3CCN(c4cccc(OC)c4)CC3)cc2nc1CC -3.12%, Cc1ccc(C)c(-c2ccc(=O)n(Cc3ccc(F)cc3Cl)n2)c1 -6.25%, O=C(COc1ccccc1)Nc1sc2c(c1C(=O)Nc1ccccc1)CCCCC2 -9.09%, CCOC(=O)C1CCCN(C(=O)Cn2ncc3c4ccccc4n(Cc4ccc(F)cc4)c3c2=O)C1 (stereo not given) -5.57%, CCOC(=O)c1ccc(NC(=O)CCn2c(=O)oc3ccccc32)cc1 -3.4%, CCOC(=O)CNC(=O)CC(c1cc(OC)c(OC)c(OC)c1)N1Cc2ccccc2C1=O (stereo not given) 1.29%, CCN(CC)c1ccc(C(=O)Nc2ccc3nc(N(CC)CC)cc(C)c3c2)cc1 -4.61%, Cc1ccc2[nH]c(CSc3nnc(NC(=O)COc4ccccc4Cl)s3)cc(=O)c2c1 -16.5%, CCc1ccc(NC(=O)C2CCCN(S(=O)(=O)c3cccc4cccnc34)C2)cc1 (stereo not given) 1.28%, Cc1ccc(CNC(=O)c2sc3ncnc(N(C)C4CCCCC4)c3c2C)cc1 -5.05%, O=S(=O)(NCC(c1ccco1)N1CCOCC1)c1ccc(Cl)cc1 (stereo not given) -1.4%, Cc1ccccc1NC(=O)C1CCN(S(=O)(=O)c2ccccc2)CC1 2.47%, O=C(Nc1ccccc1C(F)(F)F)Nc1c[nH]c(=O)[nH]c1=O 2.42%, COc1ccc(Nc2c(-c3ccco3)nc3cccc(C)n23)cc1 -13.3%, Cc1ccc2c(C)c(C(=O)N3CCC(c4nc5ccccc5s4)CC3)oc2c1C 2.15%, COc1cc(OC)c(OC)cc1CN1CCc2nc(N3CCN(c4ccccc4F)CC3)ncc2C1 0%, COc1ccc(C2C=C(c3ccccc3)Nc3nc(NS(=O)(=O)c4ccc(C)cc4)nn32)cc1 (stereo not given) 0.0739%, Cc1c(C(=O)OC2CCCCC2)[nH]c2c1C(=O)CC(c1ccccc1)C2 (stereo not given) -17.6%, Cc1ccc(OCC(=O)N(Cc2ccc(Cl)cc2)CC2CCCO2)cc1C (stereo not given) -9.48%, Cc1cc(N2CCN(c3cccc(C(F)(F)F)c3)CC2)n2nc(-c3ccccc3C)nc2n1 -4.84%, CCCOc1ccc(C2C(=O)N(C3CCCCCC3)CC(=O)N2Cc2ccc(OC)cc2)cc1OC (stereo not given) 7.35%, CCN(CC)S(=O)(=O)c1ccc2c(c1)N(CC(=O)NCc1ccc(F)cc1)C(=O)CO2 -11.6%, CCC(C)NC(=O)CSc1nc2c(sc3ccccc32)c(=O)n1CCc1ccccc1 (stereo not given) -0.65%, O=S(=O)(c1cccc(C(F)(F)F)c1)N1CCC(Oc2ccc(-n3cnnn3)cc2)CC1 1.44%, Cc1ccc2oc(=O)c3cnn(CC(=O)N4CCN(c5cccc(C(F)(F)F)c5)CC4)c3c2c1 1.96%
